Measurements reported in the supplement of paper PMC12889115.
Some of the results follow. Many values rest on one well or one pass, so single values are uncertain.

Test system: Salmonella enterica serovar Typhimurium SL1344
Test: bacterial growth OD600 after 18 h in MHB with 0.5 µg/mL polymyxin B; higher = more bacterial growth (less inhibition)
Conditions: 25 µM; polymyxin B 0.5 µg/mL; system: broth
Protocol: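 Secondary screen of the 553 primary hits at 25 µM. (i) S. Typhimurium SL1344 grown in Mueller-Hinton broth with 0.5 µg/mL polymyxin B, OD600 read after 18 h. (ii) SAFIRE assay: RAW 264.7 macrophages infected with S. Typhimurium sifB::gfp (MOI 30); compound added 2 h post-infection; cells fixed at 18 h; GFP-positive pixel fraction per macrophage imaged by confocal microscopy and expressed as % of DMSO control.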
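Further: polymyxin B level opens the outer membrane while sparing the inner membrane, with novobiocin wells as reference growth inhibitor.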

**Q.** Which “bacterial growth OD600” value does the source give for `Cc1nonc1CN(C)C(=O)C1CCCN(c2nc(-c3ccccc3)nc3c2CCC3)C1` (stereo not given) here?
**A.** -0.003

**Q.** How did the “bacterial growth OD600” value turn out when `CCCCN(C)C(=O)c1sc2ncnc(N3CCCCCCC3)c2c1C` was run?
**A.** 0.003

**Q.** How did the “bacterial growth OD600” value turn out when `COc1ccccc1CCC(=O)N1CCc2onc(-c3ccc(Cl)cc3)c2C1` was run?
**A.** -0.002

**Q.** With `CCCCN(C)C(=O)c1nc2ccccn2c1CN(C)Cc1ccc(CC)cc1` as the compound, how does the “bacterial growth OD600” value read?
**A.** 0.005

**Q.** Which “bacterial growth OD600” value does the source give for `CC(C)c1ccc(NC2CCCN(C(=O)c3ccc4c(c3)OCO4)C2)cc1` (stereo not given) here?
**A.** 0.003
